From PubChem BioAssay AID588855 (National Center for Advancing Translational Sciences (NCATS), 2011)
Hit rate of the full screen: of about 410,000 compounds, about 5,000 (1.2%) were called active. The inconclusive results got no clear call from the source; some entries with a clear call stand among them for comparison. The call rests on the fitted dose curve; in most records, active means well fitted inhibition curve with a large enough effect; inconclusive means small, poorly fitted or top-dose-only effect; inactive means no such curve, though single readings can be large or run the other way. Where the call is inconclusive, the potency comes from a doubtful curve fit.

Assay: qHTS for Inhibitors of TGF-b; further: nearly all actives have a fitted effect of over 65% in size
Settings: HepG2 CAGA-GFP TGF-b/SMAD3 reporter, GFP fluorescence, 18 h, TGF-beta stimulated, 500 pg/mL final; series mostly up to 46.1 µM; activity, negative = inhibition: at the top concentration
How it was run: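 Per well, imaged GFP fluorescence of HEPG2 CAGA-GFP cells gives the signal; cells get compound, then TGF-beta (500 pg/mL final), 18 h at 37 degrees C; %Activity versus -TGF-beta and +DMSO controls.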
On the % scale 0 is the no-effect control and ±100 the full control effect; potency means the concentration at half of the fitted maximal effect; tags describe the fitted curve by direction and shape.

| Compound | activity, negative = inhibition | Potency |
| --- | --- | --- |
| Cn1c(=NC(=O)c2ccco2)sc2ccccc21 | inactive: -17.6% | – |
| O=C(CN1CCN(S(=O)(=O)c2ccc(Br)cc2)CC1)c1ccc(O)c(O)c1 | inactive: 0.596% | – |
| COc1ccc(S(=O)(=O)N(CC(=O)NCCSc2ccccc2)c2ccc(Cl)cc2)cc1 | inactive: -15.3% | – |
| O=c1oc(-c2ccccc2)cc(Cl)c1Cl | – | active: 11.2 µM |
| COc1ccc2oc(=Nc3cccc(F)c3)c(C(N)=O)cc2c1 | inactive: -15.5% | – |
| CCOC(=O)c1ccc(NC(=O)Cc2coc3cc4c(cc23)CCC4)cc1 | – | inconclusive: 15.8 µM [inhibitor, single point] |
| CCc1cccc(N2C(=O)CSC23C(=O)N(Cc2ccccc2F)c2ccccc23)c1 (stereo not drawn) | – | inconclusive: 15.8 µM [inhibitor, single point] |
| COc1ccc(-n2ncc(C(=O)NCc3ccc4c(c3)OCO4)c2C2CCN(C(=O)OC(C)(C)C)CC2)cc1 | – | inconclusive: 12.6 µM [inhibitor, partial curve, poor fit] |
| O=C(Cc1ccccc1)NCc1ccc(-n2cccc2)cc1 | – | inconclusive: 22.4 µM [inhibitor, single point] |
| CCn1c(=O)c(CCC(=O)N2CCOCC2)c(C)c2c(C)nn(-c3ccccc3)c21 | – | inconclusive: 35.5 µM [inhibitor, single point] |
| O=S(=O)(N/N=C\C=C\c1ccccc1)c1ccc(Cl)cc1 | – | inconclusive: 3.98 µM [inhibitor, single point] |
| COc1ccc(-c2cn3nc(SCC(=O)Nc4ccccc4F)ccc3n2)cc1 | inactive: -19.9% | – |
| CCOC(=O)C1CCCN(CCC(=O)Nc2cc(C)ccc2C)C1 (stereo not drawn) | – | inconclusive: 2.51 µM [inhibitor, full curve, poor fit] |
| Cc1nn(C)c(C)c1CS(=O)(=O)c1ccccc1 | – | inconclusive: 3.55 µM [inhibitor, partial curve, poor fit] |
| Cc1cc(NC(=O)c2ccccc2NS(=O)(=O)c2c(C)c(C)cc(C)c2C)no1 | – | inconclusive: 15.8 µM [inhibitor, single point] |
| Clc1ccc(OCCNCCc2ccccc2)cc1 | – | inconclusive: 35.5 µM [inhibitor, single point] |
| COC(=O)c1scc(-c2ccc(C)cc2)c1S(=O)(=O)Nc1ccc(NC(C)=O)cc1 | – | inconclusive: 20 µM [inhibitor, partial curve, poor fit] |
| CNS(=O)(=O)c1cn(CC(=O)N2CCN(c3ccc(Cl)cc3)CC2)cc1S(=O)(=O)NC | inactive: 0% | – |
| O=C(CSc1nnc2c(Cl)cc(Cl)cn12)N1CCN(c2ccc(F)cc2)CC1 | – | inconclusive: 0.178 µM [inhibitor, full curve, poor fit] |
| Brc1cc2c(cc1C1Nc3ccccc3C3C=CCC31)OCO2 (stereo not drawn) | – | inconclusive: 14.1 µM [inhibitor, single point] |
| Cc1cc(C)cc(OC2CCCCC2NS(=O)(=O)c2ccccc2)c1 (stereo not drawn) | – | inconclusive: 4.47 µM [inhibitor, partial curve, poor fit] |
| Fc1cccc(NC(=S)NNc2ccccc2)c1 | – | inconclusive: 12.6 µM [inhibitor, partial curve, poor fit] |
| CCC(C)(C)c1ccc(OCCCC[n+]2ccc(C)cc2)c(C(C)(C)CC)c1 | – | active: 15.8 µM |

| Compound | activity, negative = inhibition | Potency |
| --- | --- | --- |
| COc1cc(NC(=O)Cn2c(=O)n(-c3ccccc3)c(=O)c3c4c(sc32)CCCC4)cc(OC)c1 | inactive: 5.1% | – |
| CCCCNC(=O)c1cnn2c(C)c(Cc3c(C)cc(C)cc3C)c(C)nc12 | – | inconclusive: 0.794 µM [inhibitor, full curve, poor fit] |
| Cc1ccc(Nc2nc(NCCO)nc(N3CCCC3)n2)cc1 | inactive: -41.1% | – |
| CC1CC(C)CN(C(=O)c2ccc3ccccc3c2)C1 (stereo not drawn) | – | inconclusive: 3.55 µM [inhibitor, single point] |
| COC(=O)/C=c1\[nH]c2nnc(C)n2c1=O | inactive: -9.95% | – |
| Cc1ccc(N(CC(=O)Nc2cc(Cl)ccc2Oc2ccccc2)S(C)(=O)=O)cc1C | inactive: -23.1% | – |
| COC(=O)C1CCN(c2nc3ccccc3nc2C(C#N)C(=O)OCC(C)C)CC1 (stereo not drawn) | inactive: -12.1% | – |
| O=S(=O)(c1ccccc1)c1ccc(N2CCCCCC2)cc1 | – | inconclusive: 35.5 µM [inhibitor, single point] |
| Cn1c(/C(C#N)=C(\O)CN2CCN(Cc3ccccc3)CC2)nc2ccccc21 | – | inconclusive: 35.5 µM [inhibitor, single point] |
| CCc1ccccc1NC(=O)COC(=O)c1c(C)nsc1NC | inactive: -5.01% | – |
| Cc1cc(C)c(NC(=O)Cn2nnc(C(=O)NCc3cccs3)c2N)c(C)c1 | – | inconclusive: 12.6 µM [inhibitor, single point] |
| CCCCNc1ncnc2c1cnn2-c1ccc(Cl)cc1 | – | inconclusive: 0.112 µM [inhibitor, partial curve, poor fit] |
| O=c1c2cc(Cl)ccc2nc(-c2ccc([N+](=O)[O-])cc2)n1O | – | inconclusive: 35.5 µM [inhibitor, single point] |
| Cc1cscc1-c1ccc(C(=O)Nc2c(C)cccc2C)o1 | – | active: 14.1 µM |
| CC1(C)CC2CC(C)(CN2C(=O)c2ccc([N+](=O)[O-])cc2[N+](=O)[O-])C1 (stereo not drawn) | – | inconclusive: 7.08 µM [inhibitor, partial curve] |
| CCCCCNC(=O)c1ccc2c(=O)n(CCc3ccccc3)c(=O)[nH]c2c1 | inactive: -0.574% | – |
| O=C(Nc1nnc(-c2cccs2)o1)c1cccc(C(F)(F)F)c1 | – | inconclusive: 25.1 µM [inhibitor, single point] |
| CCOC(=O)N1CCc2c(sc(NCc3cccc(F)c3)c2C(=O)Nc2ccc(OCC)cc2)C1 | – | inconclusive: 35.5 µM [inhibitor, single point] |
| COc1cccc(-c2csc(N3CCN(CC(=O)Nc4ccc5c(c4)OCO5)CC3)n2)c1 | – | inconclusive: 2 µM [inhibitor, partial curve, poor fit] |
| CCN(C(=O)c1cccn(Cc2cccc(Cl)c2)c1=O)c1ccccc1 | inactive: 0.907% | – |
| Cc1ccc(-c2nc(Cn3c(SCc4ccc(F)cc4)nc4cccnc43)c(C)o2)cc1 | inactive: -22.6% | – |
| Cc1cccc(C)c1NC(=O)CN(C)C(=O)c1ccc(N2C(=O)CCC2=O)cc1 | inactive: 11.5% | – |
| O=C(O)C1C2C=CC(O2)C1C(=O)NC1CCCc2ccccc21 (stereo not drawn) | inactive: -6.59% | – |

| Compound | activity, negative = inhibition | Potency |
| --- | --- | --- |
| CCOC(=O)c1cc2c(=O)n3ccccc3nc2n(CC2CCCO2)c1=NC(=O)c1ccc(F)cc1 (stereo not drawn) | inactive: -6.03% | – |
| N#CC1=C(N)NC(SCC(=O)Nc2ccc(Br)cc2)=C(C#N)C12CCCCC2 | – | active: 17.8 µM |
| O=C(CCCCn1c(=O)[nH]c2ccsc2c1=O)NCc1ccc2c(c1)OCO2 | inactive: -15.3% | – |
| O=C1N2c3ccccc3CCc3cccc(c32)C1(O)C(F)(F)F (stereo not drawn) | – | inconclusive: 17.8 µM [inhibitor, partial curve, poor fit] |
| CC(OC(=O)C1CCN(c2ccc(C(F)(F)F)cn2)CC1)C(=O)Nc1cccc([N+](=O)[O-])c1 (stereo not drawn) | – | inconclusive: 11.2 µM [inhibitor, partial curve] |
| CCCn1c2ccccc2c2cnn(CC(=O)NCCCN3CCN(c4ccccc4)CC3)c(=O)c21 | – | inconclusive: 11.2 µM [inhibitor, partial curve, poor fit] |
| CCN(CC)CCC(c1ccc(OC)cc1)c1c(O)cc(OC)cc1OC (stereo not drawn) | – | inconclusive: 35.5 µM [inhibitor, single point] |
| CCCCCC(=O)NNC1CC(=O)N(c2cccc(OCC)c2)C1=O (stereo not drawn) | inactive: 1.76% | – |
| CN(C)c1ccc(CN(C(=O)c2cc3ccccc3oc2=O)C2CCS(=O)(=O)C2)cc1 (stereo not drawn) | – | inconclusive: 14.1 µM [inhibitor, partial curve, poor fit] |
| O=C(NC(=S)Nc1ccc(N2CCCCC2)cc1)c1cccs1 | – | inconclusive: 31.6 µM [inhibitor, single point] |
| COc1ccc(CNC(=O)COC(=O)CNC(=O)c2sc3ccccc3c2Cl)cc1OC | inactive: 9.58% | – |
| COc1cccc(NC(=O)c2cc(-c3ccc(OC)cc3OC)nc3ccccc23)c1 | – | inconclusive: 11.2 µM [inhibitor, partial curve, poor fit] |
| O=C(N/C=C/c1ccc(Cl)cc1)NCc1ccc(Cl)cc1 | – | inconclusive: 20 µM [inhibitor, single point] |
| CCc1nnc(NC(=O)CSc2nnc(CCc3nc4ccccc4[nH]3)n2C)s1 | – | inconclusive: 3.98 µM [inhibitor, partial curve, poor fit] |
| O=C(C[C@H]1C[C@H](C(=O)N2CCOCC2)[C@@]2(CCC3CCCC3)c3[nH]c4ccc(Cl)cc4c3CCN2C1=O)NCCCn1ccnc1 | – | active: 11.2 µM |
| O=c1cc(CN2CCC3(CC2)OCCO3)c2c(ccc3ccccc32)o1 | – | inconclusive: 0.1 µM [inhibitor, full curve, poor fit] |
| CC(=O)OCCCNc1cc(Sc2nc3ccccc3s2)c2nonc2c1[N+](=O)[O-] | – | inconclusive: 2.82 µM [inhibitor, partial curve, poor fit] |
| Cc1cccc(N2CCN(C(=O)Cc3ccc(Br)cc3)CC2)c1C | – | inconclusive: 35.5 µM [inhibitor, single point] |
| COc1cc(C(=O)Nc2c(C(=O)Nc3ccccc3F)oc3ccccc23)cc(OC)c1OC | – | inconclusive: 6.31 µM [inhibitor, single point] |
| COc1cc(/C=C(\C#N)C(=O)NC2CCCCC2C)ccc1OS(=O)(=O)c1ccc(C)cc1 (stereo not drawn) | – | active: 20 µM |
| COc1cc(/C=C/C(=O)Nc2ccc(OC)c(S(=O)(=O)N3CCOCC3)c2)ccc1OC(F)F | – | inconclusive: 35.5 µM [inhibitor, single point] |
| CC1(C)C2CC=C(/C=N/NC(=O)c3ccc(Cl)cc3)C1C2 (stereo not drawn) | – | inconclusive: 0.282 µM [inhibitor, full curve, poor fit] |
